The other results are listed elsewhere or left out. At the low end of the ranking the order means little. The protein was read in a cell extract, so binding may be indirect.

The target of the experiment is T1, HNF4alpha8 (COS-7 nuclear extract) (UniProt P41235-5).
T1 sequence: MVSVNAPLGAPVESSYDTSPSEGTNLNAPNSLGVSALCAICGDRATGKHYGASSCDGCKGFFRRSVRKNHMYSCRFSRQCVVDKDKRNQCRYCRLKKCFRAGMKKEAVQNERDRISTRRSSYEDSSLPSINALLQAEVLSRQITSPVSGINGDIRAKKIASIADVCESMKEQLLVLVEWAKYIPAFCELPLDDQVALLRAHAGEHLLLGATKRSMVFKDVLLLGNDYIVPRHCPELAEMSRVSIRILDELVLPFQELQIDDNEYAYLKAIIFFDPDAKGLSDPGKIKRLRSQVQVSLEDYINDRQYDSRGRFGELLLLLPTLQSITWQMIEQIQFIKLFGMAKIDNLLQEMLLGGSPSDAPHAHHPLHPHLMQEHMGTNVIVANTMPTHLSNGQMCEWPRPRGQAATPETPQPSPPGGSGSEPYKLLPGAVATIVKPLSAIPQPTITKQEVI
Briefly: protein-binding microarray. The settings on record: COS-7 nuclear extract on double-stranded Agilent 4x180k PBM; binding buffer, salt, pH and temperature not given; high values mean tight binding; double strand, one strand shown; sequences stand for … in …GCCTAGGGAGATTAGAGTATCGGTCGA
Take TTACCTAAGGAAGTTAACCCCATCACCCAT: the binding signal (log2 normalized intensity) was 3.42.
With TGGACTGTTCAAGACCAAAGGTCATGGCAA, the binding signal (log2 normalized intensity) turned out to be 5.58.
The figure for AAACATCAAGGAAGAGAACTCCCTATCCCC is 1.36; for TGAGTTTTCCATTTACCTCCGCTGAACCTA it is 1.76; for ATCCGGCTGGCAGCCGATTGACCTGACCCA it is 3.71.
As for GTGGGGTGGAAGCTATGCCTGAGGCTGAGG, the binding signal (log2 normalized intensity) is -1.26.
The figure for TTCTGCCCTGCCCTCAGGGAATCCTGCATT is 0.864; for CCGTGGGGCTCCTTTGATCTCCGTGTTTGG it is 1.68.
For the sequence TTGGACTTTGACCTCCAAAATTATAAGTCA, the binding signal (log2 normalized intensity) stood at 8.58.
As for TGCTGAGCAACTATAAAACAGGAAAAAGGG, the binding signal (log2 normalized intensity) is -1.44.
TAAAAAGAAGCTTGGTATGTCTGATGAATA: the binding signal (log2 normalized intensity) is -0.164.
With ACTCGTGAAAAGAGTGATCTTTGGGCCATA, the binding signal (log2 normalized intensity) was 2.28.
In the case of ACCTGCATCTGCCCAGCAGAGCAGTTTAGA, the binding signal (log2 normalized intensity) was -1.3.
With TGCCTCTCCAAACAAATTGAGAAAGATTAA, the binding signal (log2 normalized intensity) was -1.2.
With TGCAATGTTAGTCTGGGAAAGCTGCAGGCA, the binding signal (log2 normalized intensity) is -1.22.
Consider GAGAATCCCTCCCCTGTGCAAACTTTTTCC, for which the binding signal (log2 normalized intensity) was determined as 2.26.
Regarding GTTGAAATCCATTGTCAATACCCTGTTATT, the binding signal (log2 normalized intensity) is 1.02.
Turning to CAAAAATGATACCCCAGAGTACAGCACTTT, the binding signal (log2 normalized intensity) amounted to 1.2.
The same measure for AATTCCAGTTACAAACAAAACAAACTAAAC: -1.32.
Turning to CCAAGTCTGGACCTGCTGGCTTTCTTTGGA, the binding signal (log2 normalized intensity) came to 0.912.
For CTTTGTGTACAAAGCCATCAGCACTGGTTC, the binding signal (log2 normalized intensity) is -0.19.
Turning to TTCCTTCTTCTTCTGGGGACTTCGGTCTTT, the binding signal (log2 normalized intensity) was 4.12.
The same measure for ATGATAATGCCAAGGACTGAAAGAACACAG: -1.36; for GGAAGGATGAATTTAAAAAATTCTAGAGTT: -1.31.
On to TTCAAAGTTTTTCCCCTTGGTGGATTCCGT, for which the binding signal (log2 normalized intensity) turned out to be 2.17.
Consider GCAATGTGTCAGAGAAGGAGCCAGAGCTTT, for which the binding signal (log2 normalized intensity) is -1.17.
Consider TGGATGGAATGTTCTGAATCTATCTGTTAG, for which the binding signal (log2 normalized intensity) was 0.644.
Regarding ACCTAAGATGTCACAGGCAAGCAAGTGACA, the binding signal (log2 normalized intensity) was -1.32.
As to ACCATTAACCCTACAGTCCTGCCACATCCC, the binding signal (log2 normalized intensity) is -0.385.
The same measure for GGTTTAAAGTTCAAGTCATAACTGGATGGT: 1.84; for AGGCCTCGGCTTCATTAGCAAATAACAAAG: -1.36.
In the case of CCGTGGACTCTGCCTGCCCTCTCCATGCAG, the binding signal (log2 normalized intensity) was determined as 1.39.
Regarding TCAGACGCCCTATGGCGTCCGCCTCGACCC, the binding signal (log2 normalized intensity) is 2.16.
Take CCTCAAGGAGTTTTAGATTAGGAGAGGGAG: the binding signal (log2 normalized intensity) was -1.31.
Take GAGACAGACAGAAAACAAACATTAGCTGCA: the binding signal (log2 normalized intensity) is -1.25.
As for ACAGTCCACTTTGAATCAGGAGAGCATCTG, the binding signal (log2 normalized intensity) is -1.17.
The same measure for CTGGCTATTCAGTTTTTATTTTGTATTCTT: 1.4; for TCCCACTCTTGGGTCAACATAATATTTAGC: -0.31.
On to CAGCAGCTCAGTAAATTATCTTGATGGTTA, for which the binding signal (log2 normalized intensity) was -0.169.
With ATTGGCCCTTTGACCTTTAATCAAGGGCTG, the binding signal (log2 normalized intensity) turned out to be 5.91.
The same measure for AACTTCTGTCCACAGACTCTGACTGTTATC: 0.245; for GACTGACCTTTGATCATTTGAGGGTGACAC: 6.1.
On to AACACTTACACCTGGGTGCTCCCTCCCCCT, for which the binding signal (log2 normalized intensity) is 4.49.
As to CTTATCTTCTCCACAGATTCCTGTTAACTT, the binding signal (log2 normalized intensity) came to 0.847.
As for GCAGAAGCAGGCCTCGGGCCTGCGAGGTTA, the binding signal (log2 normalized intensity) is -1.25.
On to TGAAGCCATCCTCCCACCTCAGCCTCTTGA, for which the binding signal (log2 normalized intensity) was 1.43.
The same measure for TAGGGCTCGGCATTCAGACAGACCCAGGGG: -1.24.
CTTGTGTAATAACGAGACCTTAGCCCTGAA: the binding signal (log2 normalized intensity) was -0.451.
For GTTTAACTGACCCAGGGAGAAAGGTCAGGG, the binding signal (log2 normalized intensity) is 3.67.
As for CAACCGTCCAGAGTCCACGTACTTAACTAC, the binding signal (log2 normalized intensity) is 2.21.
For GCTGTTTTCTCCAGTGCCCTTAGGGGCCGC, the binding signal (log2 normalized intensity) stood at 1.84.
As for GGTTCTCAGACCACCAGCTGCTTCGGCCAG, the binding signal (log2 normalized intensity) is -1.23.
In the case of TCCTTCCCCTTTTGTGTTTGTCCCTTTCTT, the binding signal (log2 normalized intensity) was determined as 2.77.
Take CGCCCCCCAGCGGAAGTCCAGTGGTGTCTT: the binding signal (log2 normalized intensity) was 3.56.
Turning to GGATGGATCAAAGGAAACTGCTTGGGCCCC, the binding signal (log2 normalized intensity) is -1.39.
For TGTTTGGGGCAGGCAGGGGATGAGATCTGA, the binding signal (log2 normalized intensity) is -1.27.
As to CAGATGAAAGGCGGCAACTTCTTCAGCCTA, the binding signal (log2 normalized intensity) was -1.41.
GCTGAGGAAGACTTCATTCAGGTAGCAGGC: the binding signal (log2 normalized intensity) was -1.39.
Turning to GCGCTGCTCGCAAGCAGAACCTTGGAGGCG, the binding signal (log2 normalized intensity) is -1.13.
The same measure for CACTTGCTATTTGCATCAGCAGAGGACAGA: -1.09.
Consider TTCAGCAAACAAAGGCACTTCTCTCTCCAA, for which the binding signal (log2 normalized intensity) was -1.34.
The figure for CTTTGATCAGCAATGGAGAGTGATCAGATA is 0.787; for CCCTCTGACCAGAGACATTCCAACCCTGCC it is -0.4.
Take CAAACCCAGTTTGCATTTTCATGGACAGAG: the binding signal (log2 normalized intensity) is 0.658.
Regarding TGGCCTGATTTGACAAGGCAGAGGTGATTT, the binding signal (log2 normalized intensity) is 0.405.
Take GGTTAAAGTCCAATCTTCTGGCCCCATCTA: the binding signal (log2 normalized intensity) was found to be 4.42.
The same measure for CTATAAATACGCCTCGCCCGAGCTGTGCGG: -1.34; for ACCCTTGAGCTAAGTCCCAAGGGATAGGCA: -1.26.
Take AGTCTTCCTGTCTCCATTGCCTCACCTCTC: the binding signal (log2 normalized intensity) was 1.12.
In the case of GTATGTCTGGGATTTGAAGGAGCAGAATAA, the binding signal (log2 normalized intensity) was -1.17.
Consider ACTTTGGACCCACTGCAGGATTGGAGATCT, for which the binding signal (log2 normalized intensity) came to 1.57.
Take AAGCCCTACAGCCCACAATTGCATGTTCAA: the binding signal (log2 normalized intensity) was -1.19.

For the origin of these results see article PMC10726135.
